Results on 45 molecules are retold here after paper PMC4336329 (PLoS ONE, 2015).

The structures appear in SMILES notation. The campaign covered roughly 310,000 compounds. About 2,200 (0.71%) showed an effect of 50% or more. The effect is printed as a negative number. Some of the results follow.

The target of this assay is human ether-à-go-go-related gene (hERG) potassium channel (human, UniProt Q12809). The assay is described as follows: primary screen, population patch clamp on CHO cells stably expressing hERG.
Chain of human ether-à-go-go-related gene (hERG) potassium channel (Q12809 whole entry, looked up): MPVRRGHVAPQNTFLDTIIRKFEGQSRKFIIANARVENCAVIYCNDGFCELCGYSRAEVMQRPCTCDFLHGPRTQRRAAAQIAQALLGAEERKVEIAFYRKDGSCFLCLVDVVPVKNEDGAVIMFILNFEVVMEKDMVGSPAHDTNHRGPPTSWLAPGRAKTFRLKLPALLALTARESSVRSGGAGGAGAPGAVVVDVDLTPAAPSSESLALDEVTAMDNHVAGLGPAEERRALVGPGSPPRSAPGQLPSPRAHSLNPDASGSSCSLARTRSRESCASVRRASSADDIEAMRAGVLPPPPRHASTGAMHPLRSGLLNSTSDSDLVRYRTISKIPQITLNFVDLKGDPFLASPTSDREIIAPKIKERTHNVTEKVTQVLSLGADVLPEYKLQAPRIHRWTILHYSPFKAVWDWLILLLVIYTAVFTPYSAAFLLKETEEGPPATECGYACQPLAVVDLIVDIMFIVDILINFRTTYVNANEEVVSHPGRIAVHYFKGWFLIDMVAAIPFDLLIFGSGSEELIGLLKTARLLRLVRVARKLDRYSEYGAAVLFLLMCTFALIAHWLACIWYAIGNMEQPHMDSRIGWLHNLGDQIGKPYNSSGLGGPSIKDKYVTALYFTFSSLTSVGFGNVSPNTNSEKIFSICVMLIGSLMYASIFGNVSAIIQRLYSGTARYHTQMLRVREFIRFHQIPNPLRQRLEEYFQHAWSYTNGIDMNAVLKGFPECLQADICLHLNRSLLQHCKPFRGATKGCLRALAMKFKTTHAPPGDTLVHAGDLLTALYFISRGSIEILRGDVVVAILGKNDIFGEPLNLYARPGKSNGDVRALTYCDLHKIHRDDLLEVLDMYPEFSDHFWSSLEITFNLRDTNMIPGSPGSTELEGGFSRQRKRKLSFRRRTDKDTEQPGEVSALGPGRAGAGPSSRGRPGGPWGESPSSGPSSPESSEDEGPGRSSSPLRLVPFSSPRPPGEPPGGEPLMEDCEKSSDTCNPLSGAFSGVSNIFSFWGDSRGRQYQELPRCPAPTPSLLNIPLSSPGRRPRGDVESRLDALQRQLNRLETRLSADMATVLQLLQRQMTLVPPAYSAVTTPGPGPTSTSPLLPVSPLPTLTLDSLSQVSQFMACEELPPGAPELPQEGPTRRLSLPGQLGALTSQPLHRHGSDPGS
Turning to `Cc1ccc2nc(-c3ccc(S(=O)(=O)N4CCCCC4)cc3)cn2c1`, the “hERG current change (%, negative = inhibition) at 1uM” value is reported as -2.95%. Turning to `CC1CCCCN1S(=O)(=O)c1ccc(C(=O)Nc2nnc(C3=COCCO3)o2)cc1` (stereo not drawn), the “hERG current change (%, negative = inhibition) at 1uM” value was determined as 9.98%. To `COC(=O)C1(C)NC(=O)c2ccccc2N1` (stereo not drawn) belongs 9.4%; to `CC1CN=C(N(C(=S)Nc2ccccc2)c2cccc(C(F)(F)F)c2)S1` (stereo not drawn), 8.85%. As to `O=C(COc1ccccc1)Nc1ccc(F)cc1`, the “hERG current change (%, negative = inhibition) at 1uM” value is 11.4%. Under `Cc1cc(NC(=O)Cc2ccccc2)nc2c1c(=O)oc1ccccc12` stands -2.55%.

On to `O=C1NC(=O)N(CC2CCCO2)C(=O)/C1=C/c1cccs1` (stereo not drawn), for which the “hERG current change (%, negative = inhibition) at 1uM” value stood at 13.1%. Take `COc1cc2c(cc1C1NC(=S)NC(C)=C1C(N)=O)CCCC2` (stereo not drawn): the “hERG current change (%, negative = inhibition) at 1uM” value is recorded as 11%. To `Cc1ccc(S(=O)(=O)NCC(=O)OC(C)C(=O)c2ccccc2)cc1` (stereo not drawn) belongs 7.97%; to `CCc1nn(CC(=O)NC2CCN(Cc3ccccc3)CC2)c(=O)c2cc3cc(F)ccc3n12`, 5.16%; to `Cc1[nH]c2ccccc2c1/C=N/O`, 22.3%. With `CCC(C(=O)c1ccc2ncccc2c1)c1ccccc1` (stereo not drawn), the “hERG current change (%, negative = inhibition) at 1uM” value is given as 10.7%. To `O=c1c2ccccc2nc(CSc2nnnn2-c2ccccc2)n1-c1ccccc1` belongs 6.22%; to `O=C(c1ccc2c(=O)n(CCc3ccccc3)c(=O)[nH]c2c1)N1CCN(c2ccc(F)cc2)CC1`, 15.1%. Turning to `CCOC(=O)C1CCCCN1C(=O)c1ccc2nc(Cc3ccc(OC)cc3)oc2c1` (stereo not drawn), the “hERG current change (%, negative = inhibition) at 1uM” value is recorded as 12.5%. To `O=C(OCCOc1ccc(Br)cc1)c1ccc(Cl)nc1` belongs 17.7%; to `CN(C)CCOC(=O)c1sc2ccccc2c1Cl.Cl`, 1.45%. Under `N#C/C(=C\c1ccco1)Sc1nc2ccccc2s1` stands 4.35%; under `Cn1c2ccccc2c(=O)c2c(=O)n(C3CCCCC3)c(-c3ccco3)nc21`, 5.88%; under `O=C(c1ccccc1)N1CCN(S(=O)(=O)c2cccs2)CC1`, 3.67%. To `Cl.N=C(c1ccc([N+](=O)[O-])cc1)N1CCCCC1` belongs 8.91%; to `CCCCNC(=O)c1onc(CSc2cc(C)ccc2C)c1C(=O)O`, 8.31%. Turning to `CCCCN(C(=O)C1CC(=O)N(c2ccc3c(c2)OCCO3)C1)c1c(N)n(CCCC)c(=O)[nH]c1=O` (stereo not drawn), the “hERG current change (%, negative = inhibition) at 1uM” value is on record as 10.1%.

For the molecule `Cc1cc(C)n2nc(C(=O)Nc3ccc4c(c3)OCO4)cc2n1`, the “hERG current change (%, negative = inhibition) at 1uM” value is on record as -0.546%. To `O=C1CCCC/C1=C/NCc1ccc(F)cc1` belongs 3.95%; to `CCCOc1ccc(CCC(=O)N/N=C/c2ccc([N+](=O)[O-])o2)cc1`, 12.5%. On to `Cc1ccc(C)c(N(C(=O)c2csnn2)C(C(=O)NC2CCCCC2)c2cccnc2)c1` (stereo not drawn), for which the “hERG current change (%, negative = inhibition) at 1uM” value is listed as 16.6%. Under `O=C(NC1(C(F)(F)F)NC(=O)N(Cc2cccnc2)C1=O)c1cccs1` (stereo not drawn) stands 5.09%.

In the case of `Nc1nc(N)c2sc3nc(C(F)(F)F)cc(C(F)(F)F)c3c2n1`, the “hERG current change (%, negative = inhibition) at 1uM” value is on record as -5.04%.

Take `CCc1nnc(NC(=O)C2(C)COC(c3ccccc3)OC2)s1` (stereo not drawn): the “hERG current change (%, negative = inhibition) at 1uM” value came to 11.6%. As to `Cc1ccc(C2=NN(C(=O)CCCC(=O)O)C(c3ccc4c(c3)OCO4)C2)cc1` (stereo not drawn), the “hERG current change (%, negative = inhibition) at 1uM” value worked out at 15%. Under `CCn1c(CN2CCOCC2)nnc1SCC(=O)Nc1ccccc1C` stands 20.9%; under `O=C(COC(=O)C1CCC1)Nc1cccc(S(=O)(=O)N2CCOCC2)c1`, 12%. To `CCCN1CCC(NC(=S)Nc2ccc([N+](=O)[O-])cc2)CC1` belongs -10.1%. With `CC(=O)N1c2ccc(S(=O)(=O)N3CCC(C(=O)N4CCN(c5ccccc5F)CC4)CC3)cc2CC1C` (stereo not drawn), the “hERG current change (%, negative = inhibition) at 1uM” value is -24.6%.

Turning to `CCn1c(NCc2ccc(OC)cc2)nc2ccccc21`, the “hERG current change (%, negative = inhibition) at 1uM” value was found to be 0.0776%. Under `CCOC(=O)c1c(NC(=O)C2COc3ccccc3O2)sc2c1CC(C)(C)NC2(C)C` (stereo not drawn) stands 2.7%; under `CCOc1cc(NC(=S)NCC2CCCO2)c(OCC)cc1NC(=O)c1ccc(F)cc1` (stereo not drawn), 5.63%; under `COC(=O)C1=C(C)N=C2SCCC(=O)N2C1/C=C/c1ccccc1` (stereo not drawn), -17.1%. Under `O=C(Nc1ccc(F)cc1)N1CCCCCC1` stands 11.5%; under `c1ccc2nc(-c3ccc(-n4ccnc4)cc3)ccc2c1`, 7.84%; under `CCn1nnnc1SCC(=O)Nc1ccc(OCc2ccccc2)cc1`, -7.91%. Under `Cc1[nH]c2c(Cl)cccc2c1CCN` stands 5.16%. For the molecule `COc1ccc(CN2CCNC(=O)C2CC(=O)NC2CCCC2)c(OC)c1` (stereo not drawn), the “hERG current change (%, negative = inhibition) at 1uM” value was determined as 7.22%. To `Nc1nonc1C(=O)NCCNCc1ccccc1` belongs 8.93%.
